# In all, about 410,000 compounds went through this assay and about 7,200 (1.8%) were called active. Inconclusive results, whose numbers are uncertain, are shown with a selection of clear calls. Calls come from the whole dose curve; as a rule, active = well fitted activation curve with a large enough effect; inconclusive = small, poorly fitted or top-dose-only effect, or another doubt; inactive = no such curve, though single readings can be large or run the other way. Potencies of inconclusive entries are left out as doubtful fits.
# Assay: qHTS of TDP-43 Inhibitors; note: nearly all actives have a fitted effect of over 50% in size; for growth rescue (activation): % of control where 0% means no effect
# Conditions: TDP-43 expressing yeast growth rescue, BacTiter-Glo, 24 h; growth rescue (activation): at 46.1 µM (top of the series) unless noted
# How it was run: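 In this qHTS, compounds that restore growth of yeast expressing TDP-43 appear as activators. Cells (OD600=0.02, galactose medium, raffinose-pregrown) are incubated with compound 24 hr at 30 deg C and growth is quantified by BacTiter-Glo.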
# Potency is the fitted concentration of half-maximal effect; tags give direction and shape of the fitted curve.
SMILES,Potency,growth rescue (activation)
OC1(C(F)(F)F)CC(c2ccc3ccccc3c2)=NO1 (stereo not drawn),active: 3.16 µM,
Oc1c(N=Nc2ccc(F)cc2)ccc2ccccc12,,inactive: -19.7%
CCOc1ccc(OCC)c(NC(=O)CSc2nc3cccnc3n2C)c1,"inconclusive [activator, partial curve]",
COc1ccc(CCNC(=O)Cn2c(=O)n(-c3ccc(C)c(C)c3)c(=O)c3c(C)c(C)sc32)cc1OC,,inactive: 25.4%
CN(C(=O)c1cccc(NC(=O)Cc2ccc(NC(=O)C3CCCN(C(=O)c4ccccc4)C3)cc2)c1)C1CCCCC1 (stereo not drawn),"inconclusive [activator, full curve]",
CCNc1nc(C)nc2c1cnn2C,,inactive: -15.2%
Cc1cc(NC(=O)C(C)Oc2ccc(Cl)cc2Cl)n(-c2ccccc2)n1 (stereo not drawn),"inconclusive [activator, full curve, poor fit]",
O=C(O)CCCCCCCC(=O)O,"inconclusive [activator, partial curve]",
CS(=O)(=O)N(CC(=O)Nc1ccc(Cl)c(Cl)c1)C1CCCCC1,active: 15.8 µM,
Cc1ccc(Nc2ncnc3c2oc2ccccc23)cc1,"inconclusive [activator, partial curve]",
NC(=O)c1cccc2c1-c1ccccc1/C2=N/NC(N)=S,"inconclusive [activator, single point]",
COc1ccc(CCNC(=O)Cc2c(C)c3c(cc(C)c4c(C)coc43)oc2=O)cc1OC,,inactive: 6.84%
COc1ccc(-c2nnc(SC(C)C(=O)Nc3cccc(Cl)c3)o2)cc1 (stereo not drawn),active: 12.6 µM,
OC[C@@H]1CN(Cc2ccc3c(c2)OCO3)C[C@H](n2cnc3c(N4CCN(c5ccccc5)CC4)ncnc32)O1,"inconclusive [activator, partial curve, poor fit]",
CCN(c1ccccc1)C(CNS(=O)(=O)c1ccccc1)c1ccccc1 (stereo not drawn),active: 17.8 µM,
CCN(C(=O)C(=O)Nc1ccc2nc3n(c(=O)c2c1)CCCCC3)c1ccc(F)cc1,,inactive: 24.2%
COc1ccc(C(CCN2CCOCC2)c2c(OC)cc(OC)c3c(-c4ccccc4)cc(=O)oc23)cc1 (stereo not drawn),,inactive: -7.37%
CSc1ccc(CCNC(=O)C2CCCN(c3ncnc4c3nc3n4CCCCC3)C2)cc1 (stereo not drawn),"inconclusive [activator, single point]",
CC(=O)N1CCC(C(=O)N2c3ccccc3N=C(c3ccc(C(F)(F)F)cc3)C2C(=O)NC2CCCC2)CC1 (stereo not drawn),"inconclusive [activator, partial curve, poor fit]",
OC(c1ccc(Cl)cc1)c1ncc(-c2ccc(Oc3ccccc3)cc2)[nH]1 (stereo not drawn),active: 20 µM,
C=C(C)COc1ccc(-c2[nH]ncc2-c2ccccc2OC)c(O)c1,"inconclusive [activator, single point]",
O=C(N/N=C/c1cc2ccccc2nc1Cl)/C(=C/c1cccs1)NC(=O)c1ccccc1,"inconclusive [activator, partial curve, poor fit]",
COc1ccccc1N1CCN(C(=O)C(OC(C)=O)c2ccccc2)CC1 (stereo not drawn),"inconclusive [activator, full curve, poor fit]",
c1ccc(-c2cc3nc(NCc4ccc5c(c4)OCO5)ccn3n2)cc1,active: 14.1 µM,
CCC(=O)N1c2ccc(S(=O)(=O)N3CCN(c4ccc([N+](=O)[O-])cc4)CC3)cc2CC1C (stereo not drawn),"inconclusive [activator, single point]",

SMILES,Potency,growth rescue (activation)
Cc1ccc(NC(=O)c2cnn(-c3ccccc3)c2C)c(C)c1,"inconclusive [activator, single point]",
O=C(NCc1ccc2c(c1)OCO2)c1ccc2c(c1)OCCO2,active: 25.1 µM,
COc1ccc(-c2cn3cc(C(F)(F)F)cc(Cl)c3n2)cc1,"inconclusive [activator, partial curve]",
CCCOc1ccc(C(CC(=O)O)NC(=O)C(c2ccccc2)c2ccccc2)cc1 (stereo not drawn),,inactive: -8.18%
COc1ccc(C2CC(c3cccc(C(F)(F)F)c3)=NN2c2ccc(S(N)(=O)=O)cc2)cc1 (stereo not drawn),"inconclusive [activator, single point]",
CCOc1ccc2nc(NC(=O)CS(=O)(=O)c3ccccc3)sc2c1,"inconclusive [activator, single point]",
Cc1nc2c(=O)[nH]c(=S)[nH]c2[nH]c1=O,,inactive: -1.79%
C#CCCCCCCCCC(=O)NCCCC,,inactive: 2.85%
COc1ccc2ccccc2c1C1NC(=O)NC(C)=C1[N+](=O)[O-] (stereo not drawn),"inconclusive [activator, single point]",
NC(=S)NN=C1CSSC1,active: 20 µM,
O=C1CCCc2ccccc2N1Cc1cccc(F)c1,"inconclusive [activator, single point]",
Cc1cccc(NC(=O)N2CCCc3ccccc32)c1C,"inconclusive [activator, single point]",
Cc1csc(NC(=O)c2cc3c(s2)CCCCC3)n1,,inactive: -1.08%
CCOc1ccccc1N1CCN(C(=O)c2cc3c(s2)CCC3)CC1,,inactive: 18%
Fc1ccc(Nc2nc3ccccc3c3nncn23)c(Cl)c1,"inconclusive [activator, full curve]",
O=C(O)/C=C/C(=O)Nc1ccc(OC(F)(F)F)cc1,"inconclusive [activator, single point]",
CC(=O)Nc1ccc(OCc2cnc(Cl)s2)cc1,"inconclusive [activator, full curve]",
COc1ccccc1CC(=O)Nc1ccc(S(=O)(=O)N2CCCCC2)cc1,"inconclusive [activator, partial curve]",
Cc1ccc2oc(=O)c3cc(C(=O)Nc4ccc(F)cc4F)sc3c2c1,,inactive: 0.854%
COc1ccc2[nH]c(C)c(CCNC(=S)Nc3cccc(C)c3)c2c1,"inconclusive [activator, full curve, poor fit]",
Cc1nn(Cc2c(F)cccc2Cl)c(C)c1[N+](=O)[O-],"inconclusive [activator, single point]",
Cc1onc(-c2ccccc2)c1C(=O)OCC(=O)N1CCC(C)CC1,"inconclusive [activator, partial curve]",
COc1ccc(C2(C)NC(=O)N(CC(=O)Nc3ccc4[nH]c(=O)[nH]c4c3)C2=O)cc1 (stereo not drawn),,inactive: -28.5%
S=C(Nc1ccc(Cl)cc1Cl)N1CCCCC1,"inconclusive [activator, single point]",
O=c1[nH]c2ccccc2nc1/C=C(\O)C1CC1,"inconclusive [activator, single point]",

SMILES,Potency,growth rescue (activation)
Cc1cc(O)c(C(C)C)cc1NC(=O)c1cccc(Cl)c1,,inactive: 16.5%
Brc1ccc(-c2nnc(-c3cccnc3)o2)cc1,active: 10 µM,
O=C(COc1ccccc1)NCCc1csc(-c2cccc(F)c2)n1,"inconclusive [activator, partial curve]",
O=C(c1cc(Sc2ccc(Cl)cc2)nc2ccccc12)N1CCN(c2ccccn2)CC1,"inconclusive [activator, single point]",
CSC(=NNC(=O)c1ccc(O)cc1)SC,,inactive: -7.32%
CC(C(=O)Nc1ccccc1Cl)c1ccc([N+](=O)[O-])cc1 (stereo not drawn),"inconclusive [activator, single point]",
O=C(COc1ccccc1)NCc1ccc2c(c1)CCN2C(=O)c1ccccc1,,inactive: 23.4%
O=C(NC1CCCCC1)N1CCSC1=Nc1ccccc1,"inconclusive [activator, single point]",
Cc1ccc(C)c(Oc2cc(NC(=O)CCCn3nc(C)c([N+](=O)[O-])c3C)cc([N+](=O)[O-])c2)c1,,inactive: 0.515%
Cc1c(OC(C)C(=O)N[C@H](C(=O)O)c2ccccc2)ccc2c3c(c(=O)oc12)CCCC3 (stereo partly drawn),,inactive: -8.72%
O=S(=O)(Nc1nc2ccccc2nc1Cl)c1ccc(F)cc1,,inactive: 6.55%
COC(=O)C1=C(C)N(Cc2ccccc2)C(=NCc2ccccc2)N[C@H]1c1cccc(F)c1,,inactive: 14.5%
CC(C)(C)OC(=O)N1CCC(c2c(C(=O)NC3CCCCC3)cnn2-c2cccc(F)c2)CC1,,inactive: -4.23%
Cc1ccc(-n2nnnc2-c2cnc3cc4c(cc3c2C)OCO4)cc1,"inconclusive [activator, partial curve]",
Cc1ccc(C)c(S(=O)(=O)Nc2nc(C)c(C(=O)Nc3ccccc3)s2)c1,"inconclusive [activator, partial curve]",
COc1ccccc1NC(=O)c1ccc(NC(=O)COC(=O)CCC2CCCC2)cc1,"inconclusive [activator, single point]",
O=C(c1cccc(Cl)c1)N1CCCC(C(=O)N2CCN(c3ccccc3)CC2)C1 (stereo not drawn),"inconclusive [activator, partial curve]",
O=C(CC1Sc2ncnn2C1=O)Nc1ccc(Cl)cc1 (stereo not drawn),"inconclusive [activator, single point]",
CCCCN(CCCC)CCCOC(=O)c1ccc(N)cc1,,inactive: 9.07%
Cc1cc(=O)n(CC(=O)Nc2ccc([N+](=O)[O-])cc2)c(-n2nc(C)cc2C)n1,"inconclusive [activator, partial curve]",
COc1ccc(Br)cc1CN(C)C(=O)CNC(=O)c1ccc2ccccc2c1,active: 22.4 µM,
Cc1cc(F)ccc1-n1nnc(C(N)=O)c1C,"inconclusive [activator, partial curve]",
Cc1ccccc1-c1nc2cc(NC(=O)C3CC3)ccc2o1,"inconclusive [activator, single point]",

# — PubChem BioAssay AID652104 (National Center for Advancing Translational Sciences (NCATS), 2013)
